# Test results reported in PubChem BioAssay AID1479 (National Center for Advancing Translational Sciences (NCATS), 2009).
# Hit rate of the full screen: of about 280,000 compounds, about 820 (0.29%) were called active. Inconclusive means that the source gave no clear call. Such entries were picked first, then a sample of the others. The call rests on the fitted dose curve; in most records, active means well fitted curve in either direction with a large enough effect; inconclusive means small, poorly fitted or top-dose-only effect; inactive means flat fitted curve, though single readings scatter. No potency is given beside an inconclusive call; the fits are too rough.
# Experiment: Total Fluorescence Counterscreen for Inhibitors of the Interaction of Thyroid Hormone Receptor and Steroid Receptor Coregulator 2
# Conditions: TRb/SRC2 Texas Red total fluorescence interference; series mostly up to 106 µM
# Outline: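 Human TRβ ligand-binding domain (0.6 uM) and Texas Red SRC2 peptide (20 nM) in Tris buffer with 1 uM T3 and 5% DMSO were incubated with pinned compound for 5 hr at ambient temperature. Total fluorescence was computed as S + 2P (555/632 nm).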
# Potency means the concentration at half of the fitted maximal effect; tags describe the fitted curve by direction and shape or compound fluorescence and quenching.
row,Compound,Potency
1,CCCN1C(=O)C2(c3ccccc31)c1c(oc3ccc(F)cc3c1=O)C(=O)N2CCCOC(C)C (centres undefined),active: 3.55 µM [quencher]
2,Cc1ccc2c(c1)c(=O)c(C(=O)c1ccc3c(c1)OCO3)cn2Cc1ccc(Cl)cc1,inactive
3,Cn1ncc([N+](=O)[O-])c1C(=O)Nc1ccc(-c2nc3ccccc3[nH]2)cc1,inactive
4,C=CCn1c(=O)/c(=C/c2ccc(C)o2)s/c1=C(/C#N)C(=O)c1ccccc1,"inconclusive [rising, single point]"
5,COC(=O)c1ccc(CSc2nnc3ccc4ccccc4n23)cc1,"inconclusive [falling, partial curve, poor fit]"
6,C/C(=N\Nc1ccc([N+](=O)[O-])cc1)c1ccc(N)cc1,active: 0.316 µM [quencher]
7,Cc1cccc2[nH]c3c(N4CCN(C(=O)c5ccco5)CC4)ncnc3c12,inactive
8,COc1ccc(OC)c(S(=O)(=O)NCCc2csc(-c3cccc(F)c3)n2)c1,"inconclusive [falling, partial curve, poor fit]"
9,COc1cccc(/C(O)=C/c2nc3ccc(C(=O)NCCc4ccc(Cl)cc4)cc3[nH]c2=O)c1,"inconclusive [rising, single point]"
10,C/C(=N/NC(=O)C1CC1(c1ccccc1)c1ccccc1)c1cccs1 (centres undefined),"inconclusive [falling, full curve, poor fit]"
11,Cc1ccc(N/N=C(\Cc2nc3ccccc3[nH]2)c2ccccc2)cc1,"inconclusive [falling, full curve, poor fit]"
12,CCCCCSc1nc2sc3c(c2c(=O)n1-c1ccc(OC)cc1)CCN(C(C)=O)C3,active: 22.4 µM [quencher]
13,CCc1ccccc1NC(=O)Cn1c(=O)n(-c2ccc(CC(=O)NCC3CCCO3)cc2)c(=O)c2ccccc21 (centres undefined),"inconclusive [quencher, full curve]"
14,Cc1ccc(NC(=O)/C(C#N)=C/c2ccc(C)s2)c(C)c1,"inconclusive [rising, single point]"
15,COc1ccc2c(c1)Cc1sc(NC(=O)c3cccc(C)c3)nc1-2,"inconclusive [falling, full curve, poor fit]"
16,CCc1ccccc1NC(=O)CN(c1ccccc1)S(=O)(=O)c1ccsc1C(=O)OC,"inconclusive [falling, full curve, poor fit]"
17,Cc1ccc2nc3nc(NCC4CCCO4)c(C(=O)NC4CCCC4)cc3c(=O)n2c1 (centres undefined),"inconclusive [falling, full curve, poor fit]"
18,CSc1nc(Nc2ccc(F)cc2)cc(-c2ccccc2)n1,"inconclusive [falling, full curve, poor fit]"
19,CCc1ccc(NC(=O)CSc2nccn2-c2ccc(F)cc2)cc1,"inconclusive [quencher, full curve]"
20,COc1cc(NC(C(=O)Nc2cccc(C(C)=O)c2)c2ccccc2)cc(OC)c1OC (centres undefined),"inconclusive [falling, partial curve, poor fit]"
21,COc1cc(-c2nnc(SCC(=O)c3cc(C)n(CC4CCCO4)c3C)o2)cc(OC)c1OC (centres undefined),"inconclusive [fluorescent, partial curve]"
22,N#Cc1c(N)sc(=S)c2c1CCN(Cc1ccccc1)C2,"inconclusive [fluorescent, partial curve]"

row,Compound,Potency
1,COc1ccc2oc(=O)c(-c3nnc(-c4ccc(C)cc4)o3)cc2c1,active: 20 µM [quencher]
2,Cc1csc(NC(=O)c2sc3nc(-c4cccs4)ccc3c2N)n1,inactive
3,Cc1cccc(Cc2c(C)nc3c(-c4ccccc4)c(C)[nH]n3c2=O)c1,active: 8.91 µM [quencher]
4,CCN(Cc1ccccc1)S(=O)(=O)c1ccc(-c2coc(C)n2)cc1,"inconclusive [falling, partial curve, poor fit]"
5,Cc1ccc(NC(=O)Cc2coc3ccc(C(C)C)cc23)cc1Cl,active: 0.158 µM [quencher]
6,COc1ccc2cc3c(N)nn(C(=O)c4ccc(OC)c(OC)c4)c3nc2c1,"inconclusive [quencher, partial curve]"
7,O=C1OC(Nc2cc(Br)cc3cccnc23)c2ccccc21 (centres undefined),inactive
8,O=C(Cn1c(=O)nc(-c2ccccc2)c2cc(Cl)ccc21)Nc1ccc(F)c(Cl)c1,"inconclusive [falling, full curve, poor fit]"
9,CCOc1cc(/C=C2\C(=O)N(Cc3ccco3)C(C)=C2C(=O)OC)ccc1O,inactive
10,C=CCN(Cc1cn(C)nc1-c1cccc(Cl)c1)C1CCS(=O)(=O)C1 (centres undefined),inactive
11,CN(C)c1nc(=O)n(C2CCC(O)CC2)c(=O)n1C (centres undefined),inactive
12,COc1cccc(C2CC(=O)Nc3c2c(=O)[nH]c2nc4ccccc4n32)c1 (centres undefined),"inconclusive [quencher, full curve]"
13,N=C1/C(=C/c2coc3ccccc3c2=O)C(=O)N=C2SC(c3ccco3)=NN12,"inconclusive [quencher, partial curve]"
14,O=C(COc1ccc([N+](=O)[O-])cc1)Nc1nc2c(s1)CCCC2,"inconclusive [falling, full curve, poor fit]"
15,Cc1ccc2ncc(C(=O)Nc3ccc(OC(F)(F)F)cc3)c(=O)n2c1,"inconclusive [quencher, full curve]"
16,CCOC(=O)c1cc(-c2ccccc2)n(CCCC(=O)Nc2cccc(C)c2C)c1C,inactive
17,CCN=c1scc(C)n1/N=C/c1cc(Br)c(O)c(Br)c1,inactive
18,O=C(NCCCO)c1ccc2nc(-c3ccco3)c(-c3ccco3)nc2c1,"inconclusive [quencher, partial curve]"
19,Cc1cccc(C(=O)Nc2scc(CC(C)C)c2C(=O)O)c1,inactive
20,O=C(c1ccc(Br)cc1)N1CCN(CCc2ccncc2)CC1,"inconclusive [falling, partial curve, poor fit]"
21,COc1ccc(C(=O)N/N=C(\C)CC(=O)N2CCN(C=O)CC2)cc1,"inconclusive [falling, full curve, poor fit]"
22,CC(=O)c1ccc(NC(=O)c2cc(Cl)nc3ccccc23)cc1,inactive

row,Compound,Potency
1,Cc1cc(C)nc(NC(=NCCc2c[nH]c3ccc(Cl)cc23)NC(=O)c2ccccc2C)n1,"inconclusive [quencher, full curve]"
2,COC(=O)C1=C(C)NC(=O)C1(NC(=O)c1cc(OC)c(OC)c(OC)c1)C(F)(F)F (centres undefined),"inconclusive [falling, full curve, poor fit]"
3,CCOC(=O)c1c(C)n(S(=O)(=O)c2ccc(C)cc2C)c2ccc(NS(=O)(=O)c3ccc(C)cc3C)cc12,"inconclusive [quencher, full curve]"
4,CCCn1c(-c2ccc(F)cc2)nc2c(N3CCN(CCn4ccnc4)CC3)nc(C)nc21,inactive
5,COc1cc(OC)c(NC(=O)C2CCN(C(=O)c3sc4nc[nH]c(=O)c4c3C)CC2)cc1Cl,"inconclusive [falling, full curve, poor fit]"
6,CC[C@H](C)[C@H](NC(=O)[C@H](C)NC(=O)CNC(=O)[C@H](CCCN=C(N)N)NC(=O)[C@H](C)NC(=O)[C@H](CC(C)C)NC(=O)[C@H](CCC(=O)O)NC(=O)[C@H](CC(C)C)NC(=O)[C@H](C)NC(=O)[C@@H](N)CCC(=O)O)C(=O)N[C@@H](Cc1ccccc1)C(=O)N[C@@H](CCC(N)=O)C(=O)N[C@@H](C)C(=O)O,inactive
7,CCC1Oc2ccc(C)cc2N(CC(=O)NCc2ccc(OC)cc2)C1=O (centres undefined),"inconclusive [falling, full curve, poor fit]"
8,O=C(CN1CCOCC1)Nc1ccc2c(c1)OCO2,inactive
9,Oc1c(C=C2N=c3ccccc3=N2)sc(=S)n1-c1ccc(F)cc1,"inconclusive [falling, full curve, poor fit]"
10,CC(C)Cn1cc(NC(=O)Nc2cccc(C(F)(F)F)c2)c2ccccc2c1=O,"inconclusive [falling, partial curve, poor fit]"
11,O=C(CN1C(=O)CC(c2ccco2)Sc2ccccc21)Nc1ccc(C(F)(F)F)cc1 (centres undefined),"inconclusive [quencher, full curve]"
12,COC(=O)c1ccc(C23CC2(C(NP(=O)(c2ccccc2)c2ccccc2)c2ccccc2)C3)cc1 (centres undefined),inactive
13,Cc1noc(C)c1S(=O)(=O)N1CCC2(CC1)OCCO2,inactive
14,Cc1ccc(-n2ncc(C(=O)Nc3ccc4c(c3)OCO4)c2C2CCN(C(=O)OC(C)(C)C)CC2)c(C)c1,inactive
15,O=S(=O)(/N=C(/Sc1ccccc1)c1ccccc1)c1ccccc1,inactive
16,O=S(=O)(c1ccc2nc(-c3ccco3)c(-c3ccco3)nc2c1)N1CCOCC1,active: 6.31 µM [quencher]
17,COc1cccc(C2C(C(=O)Nc3ccc(Cl)cc3)=C(C)Nc3nc4ccccc4n32)c1 (centres undefined),"inconclusive [quencher, full curve]"
18,COc1ccc(O[C@H]2C=C[C@@H](c3ccccc3)O[C@H]2COC(=O)NCc2cccc3ccccc23)cc1,"inconclusive [quencher, full curve]"
19,Cn1c(=O)cc2c3c(c(N4CCCCC4)ccc31)C(=O)c1ccccc1-2,"inconclusive [fluorescent, full curve]"
20,Cc1cc2c(cc1C)NC(CC(=O)Nc1cccc(Cl)c1)C(=O)N2 (centres undefined),"inconclusive [falling, full curve, poor fit]"
